PubChem BioAssay AID1159614 (National Center for Advancing Translational Sciences (NCATS), 2016)
The campaign covered roughly 45,000 compounds. About 65 (0.1%) were called active. The call rests on the fitted dose curve; in most records, active means well fitted activation curve with a large enough effect; inconclusive means small, poorly fitted or top-dose-only effect; inactive means no such curve, though single readings can be large or run the other way. Some of the results follow.

The molecules below were run against Galactocerebrosidase (Homo sapiens) (UniProt P54803) (assay: A Novel Cell-Based Assay to Identify Small Molecules for B -Galactocerebrosidase). Settings: 145M-Twi-hGALC-G270D cells (Twitcher mouse brain line with human GALC G270D), HMU-beta-Gal fluorescence, 48 h; series mostly up to 57.5 µM; activation: at the top concentration.
In short: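 Mutant human GALC (G270D), stably expressed in a Twitcher mouse brain cell line lacking endogenous GALC, is measured in live-treated cells via 6-hexadecanoylamino-4-methylumbelliferyl-β-galactoside hydrolysis (0.1 mM final, pH 5.2) with fluorescent detection.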
Further: 0% is about no effect; nearly all actives have a fitted effect of over 65% in size.

Chain of UniProt P54803 (P54803 whole entry, looked up): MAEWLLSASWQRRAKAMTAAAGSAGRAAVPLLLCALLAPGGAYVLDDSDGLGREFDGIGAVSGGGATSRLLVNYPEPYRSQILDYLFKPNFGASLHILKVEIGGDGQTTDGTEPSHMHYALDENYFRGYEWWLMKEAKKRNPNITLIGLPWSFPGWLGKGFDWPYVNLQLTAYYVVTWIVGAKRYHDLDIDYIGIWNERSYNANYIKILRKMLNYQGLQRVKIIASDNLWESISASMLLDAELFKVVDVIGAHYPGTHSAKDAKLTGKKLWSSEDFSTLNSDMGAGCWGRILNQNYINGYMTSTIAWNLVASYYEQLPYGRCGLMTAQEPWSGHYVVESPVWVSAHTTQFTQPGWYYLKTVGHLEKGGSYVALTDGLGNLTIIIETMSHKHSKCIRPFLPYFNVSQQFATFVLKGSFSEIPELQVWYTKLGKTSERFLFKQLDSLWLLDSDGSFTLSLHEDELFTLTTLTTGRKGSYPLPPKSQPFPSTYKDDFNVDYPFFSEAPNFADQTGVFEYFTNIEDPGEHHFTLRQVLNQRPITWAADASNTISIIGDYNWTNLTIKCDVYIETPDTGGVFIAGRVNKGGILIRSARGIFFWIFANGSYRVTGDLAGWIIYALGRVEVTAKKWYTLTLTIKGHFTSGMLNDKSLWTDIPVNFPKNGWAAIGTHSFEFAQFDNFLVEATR

activation, inactive:
CCOc1ccc(-n2c(Cc3ccccc3)nnc2SCc2nc(-c3ccccc3C)no2)cc1 -10.9%, Cc1ccc(C(=O)c2oc3ccccc3c2NC(=O)c2cc(=O)c3ccccc3o2)cc1 -15.7%, Fc1cccc(-c2nc(-c3ccncc3)no2)c1 -9.31%, CCOCCCNC(=O)C(c1ccc(OC)cc1)N(Cc1cccs1)C(=O)c1ccc(NC(C)=O)cc1 (stereo not drawn) -25%, COc1cccc(-c2cn3c(n2)sc2cc(C(=O)NCc4cccs4)ccc23)c1 -18.8%, COc1ccc(CNC(=O)Cn2ccc3cc(S(=O)(=O)N4CCCCCC4)ccc32)cc1OC -6.43%, COc1ccc2oc(=O)cc(CN3CCN(C(=O)c4ccccc4F)CC3)c2c1 1.54%, CCOc1ccc(CNC(=O)C2CCN(S(=O)(=O)c3c(C)noc3/C=C/c3ccc(C)cc3)CC2)cc1OC 3.11%, O=C(CCN1CCC(c2ccccc2)C1)c1ccc2c(c1)OCCO2 (stereo not drawn) -9.26%, COc1ccc(NC(=O)CSc2nc3nc(C)cc(C)n3n2)cc1 -0.142%, CCOc1ccc(CNS(=O)(=O)c2ccc3[nH]c4c(c3c2)CCCC4)cc1OC -10%, Cc1c(CNCc2ccc(Cl)cc2)c(C(=O)O)c(C)n1Cc1ccc(F)cc1 -9.44%, CC(=O)Nc1ccc(NC(=O)CC2Sc3ccccc3NC2=O)cc1 (stereo not drawn) -14.8%, Cc1ccc(Cl)cc1N1CCN(C(=O)c2cc(S(=O)(=O)N3CCC(C)CC3)cn2C)CC1 -1.93%, CCCN(CCC)CCCNC(=O)C1CCC(CNS(=O)(=O)c2ccc(NC(C)=O)cc2)CC1 (stereo not drawn) 7.07%, COc1cccc(CNC(=O)CCc2nnc3n(C)c(=O)c4sccc4n23)c1 -8.15%, COc1ccc(NC(=O)Cn2c(CCC(=O)O)ccc2-c2ccccc2)cc1Cl -11.2%, CCOc1ccc(CC(=O)Nc2c(C(=O)c3ccc(F)cc3)oc3ccccc23)cc1OCC -12.9%, CCOC(=O)c1c(C)oc2nc(C)nc(Nc3cccc(OC)c3)c12 -15.2%, COc1ccc(C(CNC(=O)COc2ccc(C)c(C)c2)N2CCCCC2)cc1 (stereo not drawn) -11.6%, Cc1ccccc1CSc1cn(CCNC(=O)c2cccs2)c2ccccc12 -30.7%, COC(=O)c1ccc(C2Nc3c(C)cc(C)cc3C3C=CCC32)cc1 (stereo not drawn) -2.07%, CCC(O)c1nc2ccccc2n1Cc1cccc(Cl)c1 (stereo not drawn) -14.5%, COc1ccc(CC(=O)Nc2nc3c(s2)CC(C(C)(C)C)CC3)cc1 (stereo not drawn) 17.8%, Cc1ccc(NC(=O)CN2C(=O)CCSc3ccc(S(=O)(=O)N4CCCC4)cc32)cc1 -18.2%, COc1ccc(NC(=O)C2=CC(c3cccs3)=NS(=O)(=O)N2C)cc1 -15.3%, Cc1ccccc1CNC(=O)C(C)n1nc(C)n2c(cc3occc32)c1=O (stereo not drawn) 1.89%, Cc1ccc(-c2nc3c(c(SCC(=O)N4CCCCC4)n2)Cc2cc(C)ccc2O3)cc1 -22.6%, CCc1ccc(-c2nc(CSCC(=O)NCc3ccccc3OC)c(C)o2)cc1 -14%, CCn1c(CNC(=O)c2ccc(OC)cc2)nnc1SCC(=O)Nc1ccc(OC)cc1 -10%, CC(C)=CCC[C@@](C)(O)[C@H]1CC=C(C)CC1 -16%, COc1ccccc1CNC(=O)C(Cc1ccccc1)NS(=O)(=O)c1ccc2c(c1)oc(=O)n2C (stereo not drawn) -9.18%, CCOC(=O)c1cccc(NC(=O)CSc2ncc3c(n2)-c2ccccc2N(C)S3(=O)=O)c1 -12.7%, CCOc1ccc(CC(=O)Nc2ccc3nc(N4CCCCC4)cc(C)c3c2)cc1OCC 13.2%, O=C(NCCc1ccccc1)c1ccc2c(c1)N(Cc1ccccc1Cl)C(=O)c1ccccc1S2 -8.78%, Cc1nn(Cc2noc(C(=O)NCc3ccc(F)cc3)n2)c(C)c1Br -12.8%, CC(C)NC(=O)Nc1ccc2c(c1)N(C)C(=O)c1ccccc1S2 -3.63%, COc1ccc(-c2nc3scc(CCNS(=O)(=O)c4ccc(F)cc4F)n3n2)cc1OC -14%, CCc1nnc(NC(=O)CSc2nc3c([nH]c4ccccc43)c(=O)n2-c2cc(C)cc(C)c2)s1 -0.0995%, O=C1CC(c2nc3ccccc3n2CCCCOc2ccccc2)CN1c1ccccc1Cl (stereo not drawn) 2.48%, Cc1ccc(-c2noc(COc3ccc(Br)c(C)c3)n2)cc1 -0.414%, O=C1C(=O)c2ccccc2C(O)=C1C1CCC(c2ccc(Cl)cc2)CC1 (stereo not drawn) -11.3%, Cc1nnc(SCc2cc(=O)n3c(C)cccc3n2)s1 -0.688%, COc1ccc(-n2ncc3c(N4CCN(c5cccc(C)c5)C(C)C4)ncnc32)cc1 (stereo not drawn) -12.9%, Clc1cccc(CNc2ncnc3c2nc2n3CCCC2)c1 -13.2%, CCOc1ccc(Cn2c(=O)oc3ccccc32)cc1 -7.23%, O=C(Cn1c(=O)n(Cc2ccc3c(c2)OCO3)c(=O)c2ccccc21)Nc1cccc(Cl)c1 -12.2%, NS(=O)(=O)c1ccc(NC(=O)CCn2c(=O)oc3ccccc32)cc1 2.49%, Cc1c(C(=O)N2CCCC2)oc2c1-c1nn(CC(=O)NCc3cccc(Br)c3)cc1CC2 -24%, COc1ccc(Cl)cc1NC(=O)CCc1nc(-c2ccccc2F)no1 -4.72%, Cc1ccc(-n2nnc3c(sc4nc(C)c(C)cc43)c2=O)cc1Cl -16%, Cc1ccc(C)c(NC(=O)C2CCCN(S(=O)(=O)c3c(C)noc3/C=C/N(C)C)C2)c1 (stereo not drawn) -19.3%, COc1ccc(CSc2nc3ncccc3[nH]2)cc1 7.17%, CCOc1ccc(N2CC(c3nc(-c4cc(OC)c(OC)c(OC)c4)no3)CC2=O)cc1 (stereo not drawn) -0.268%, CCOc1ccc(N(C)S(=O)(=O)c2ccc3c(c2)C(C)(C)C(=O)N3C)cc1 -8.37%, Cn1c(=O)oc2cc(S(=O)(=O)CCC(=O)NCc3ccccc3)ccc21 -10.8%, CCN(c1ccccc1)S(=O)(=O)c1nnc(NC(=O)COc2ccc(OC)cc2)s1 4.08%, CC(=O)OCC#CCSc1nnc(-c2cccc(Br)c2)o1 -16.4%, CCOC(=O)c1c(C)oc2nc(C)nc(NCC3CCN(Cc4ccc(Cl)cc4)CC3)c12 -14.3%, COc1ccc(-c2nc3n(n2)C(c2ccc(OC)cc2)C(C(=O)Nc2cccnc2)=C(C)N3)cc1 (stereo not drawn) -10.4%, CCOC(=O)c1[nH]c(C)c(CCC(=O)N2CCN(c3ccccc3)CC2)c1C -11.6%, COCCNC(=O)C1CCN(S(=O)(=O)c2ccc3c(c2)CCCN3C(C)=O)CC1 -16.4%, COc1cccc(N2CC(NC(=O)c3ccc(S(=O)(=O)N4CCCC4)cc3)CC2=O)c1 (stereo not drawn) -16.2%, O=C(NC1CCCC1)c1c[nH]c2ccc(S(=O)(=O)Nc3cccc(C(F)(F)F)c3)cc2c1=O -2.53%, O=C(Cc1ccccc1)Nc1sc2c(c1C(=O)Nc1ccccc1Cl)CCC2 -2.29%, O=c1[nH]c(=O)n([C@H]2O[C@H](CO)[C@@H](O)[C@@H]2O)cc1/C=C\Br -21.2%, COc1ccc(-c2cc(NCc3ccc(F)cc3)n3cnnc3n2)cc1 -1.78%, Cc1cc(OCC(=O)NCC2(N3CCN(C)CC3)CCCCC2)cc(C)c1Cl -7.5%, Cc1ccc(-n2nc3c(N4CCC(C(=O)N5CCCCC5)CC4)nnc(C)c3c2C)cc1 -3.47%, Cc1ccc(NC(=O)CCc2nnc3n(CC(C)C)c(=O)c4ccccc4n23)cc1C -6.19%, COc1ccc(CNC(=O)Cn2nc(C)c3nn(-c4ccc(Cl)cc4)c(C)c3c2=O)cc1 2.84%, CCCc1cc(N2CCN(c3cc(Cl)ccc3C)CC2)n2cnnc2n1 -26.3%, CCCN1C(=O)C(Cc2nc3ccccc3c(=O)n2CC)c2ccccc21 (stereo not drawn) -5.74%, Cc1ccc(NC(=O)CCn2cccn2)cc1Cl -20.7%, CCOc1ccc(CCNC(=O)CN2C(=O)COc3ccc(S(=O)(=O)N4CCC(C)CC4)cc32)cc1 -1.02%, Cc1ccc2oc(C(=O)Nc3c(C(=O)Nc4ccccc4)oc4ccccc34)cc(=O)c2c1 -10.5%, CCCOc1ccc(N2CC(C(=O)Nc3cccc(Cl)c3Cl)CC2=O)cc1 (stereo not drawn) -35.1%, O=S(=O)(c1ccccc1)c1nnn2c1nc(NCc1cccs1)c1sccc12 -12.6%, CCCCN(C)c1nnc(NC(=O)Nc2cccc(C(C)=O)c2)s1 2.3%, Cc1ccc(NC2=CC(c3ccccc3F)N(c3ccc(C)cc3)C2=O)cc1 (stereo not drawn) -25.8%, COC(=O)c1c(NC(=O)c2cc3nc(-c4ccc(OC)cc4)cc(C(F)(F)F)n3n2)sc2c1CCCC2 -17.6%, COc1ccc(NC(=O)Cn2c(=O)n(-c3ccccc3)c(=O)c3c4c(sc32)CCCC4)cc1 -13.6%, Cc1cc(C)cc(Nc2cc(-c3ccccc3)nc(C)n2)c1 -4.75%, COc1ccc(-c2cc(C(=O)OCC(=O)c3ccc(C)cc3)c3cccc(Cl)c3n2)cc1 -6.56%, Cc1ccccc1-c1ncnn1-c1sc2c(c1C#N)CCCCC2 -14.1%, CC(C)Cn1c(=O)c2ccccc2n2c(CCC(=O)NCc3ccccc3Cl)nnc12 -14.9%, CCOc1ccccc1NC(=O)C(Cc1ccccc1)NS(=O)(=O)c1ccc2c(c1)oc(=O)n2C (stereo not drawn) -19.7%, COc1ccc(-c2cc3nc(C)c(CCC(=O)N4CCN(c5cccc(Cl)c5)CC4)c(C)n3n2)c(OC)c1 -28.7%, O=C(NCc1cccs1)c1ccc2c(c1)N(Cc1ccccc1Cl)C(=O)c1ccccc1S2 -9.43%, O=C(CN1C=NS(=O)(=O)c2ccccc21)Nc1ccc(F)cc1 -15.4%, O=C(CN1CCNCC1)NC1CCCCC1 -12.4%, CC(=O)NCCNC(=O)CCCc1nnc2n(C)c(=O)c3sccc3n12 -9.82%, COc1ccc(CNC(=O)c2cc3cc(C)ccc3n2C)cc1 -13%, Cc1ccc(-n2c(=O)c3c(c4cc(C)ccc4n3C)n(CC(=O)NCc3ccccc3Cl)c2=O)cc1 2.92%, CC(Nc1ccc(-c2nc(-c3ccncc3)no2)cc1[N+](=O)[O-])c1ccccc1 (stereo not drawn) 12.1%, CCCCN(CCCC)C(=O)CN(C)S(=O)(=O)c1ccc2c(c1)c(=O)n(C)c(=O)n2C -5.58%, O=C(NCc1ccccc1Br)c1ccc2nc(N3CCCCC3)sc2c1 -2.42%, Cc1sc2c(c1C)c(=O)n(CCc1ccccc1)c(=O)n2Cc1cccc(F)c1 2.81%
